Experimental data: PubChem BioAssay AID1345083 (National Center for Advancing Translational Sciences (NCATS), 2018)
Out of some 94,000 compounds screened, about 6,200 (6.6%) were called active. Inconclusive means that the source gave no clear call. Such entries were picked first, then a sample of the others. Calls follow the shape of the dose curve; as a rule, active = well fitted inhibition curve with a large enough effect; inconclusive = small, poorly fitted or top-dose-only effect; inactive = flat fitted curve, though single readings scatter. A potency beside an inconclusive call is a rough fit, not a confirmed value.

test: Cytotoxic Profiling in HEK 293 Cell Line of Diverse Libraries Using Quantitative High-Throughput Screening; conditions: HEK 293 viability, ATP luminescence (CellTiter-Glo), 48-72 h; activity change, negative = cytotoxicity: at 115 µM (top of the series) unless noted; series mostly up to 115 µM; also: nearly all actives have a fitted effect of over 60% in size
Method in brief: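 HEK 293 cells seeded at 250 cells/well were exposed to compound for 48 or 72 hr at 37 degree Celsius. Viability taken as ATP content by CellTiter-Glo luminescence.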
% is scaled to controls: 0 for no effect and ±100 for the full control effect; potency is read from the fitted curve at half-maximal effect; tags tell the direction and shape of the fitted curve.

Structure (SMILES)	Potency	outcome	activity change, negative = cytotoxicity
COc1cccc(CN2C[C@@H]3C[C@H]2C(=O)N(Cc2ccccc2)c2ccccc2O3)n1	inconclusive: 89.1 µM [inhibitor, partial curve]		
N#CCn1nc2n(c1=O)CCN(C(=O)NCCc1ccccc1)CC2		inactive	
CCOC(=O)c1cnc(N2CC3CCC(C2)N3CC(F)(F)F)s1			inactive: 3.49%
COc1cccc(-c2noc3c2CN(C(=O)c2ccc(C)cc2OC)CC3)c1	inconclusive: 39.8 µM [inhibitor, full curve, poor fit]		
CC1(C(=O)Nc2ccccc2)CN(Cc2ccccc2)Cc2ccc(N3CCOCC3)nc21 (stereo not given)	inconclusive: 22.4 µM [inhibitor, full curve, poor fit]		
CC(C)N1C(=O)C2(CCCC2)C1C(=O)NCc1cc(F)cc(F)c1 (stereo not given)			inactive: -1.36%
COC1CN(c2cccc(F)c2)C12CCN(C(=O)CC1CCCC1)CC2 (stereo not given)	inconclusive: 56.2 µM [inhibitor, partial curve, poor fit]		
O=C(NCc1cccc(F)c1)C1CCN(C(=O)c2ccc(-c3cncnc3)cc2)CC1			inactive: -17%
Cc1ccsc1C(=O)NC1CCN(c2cc(-c3ccc(F)cc3)[nH]n2)C1 (stereo not given)	inconclusive: 50.1 µM [inhibitor, partial curve, poor fit]		
CCn1cc(-c2ccncc2)cc1C(=O)NCc1ccc(OC(C)C)cc1	inconclusive: 50.1 µM [inhibitor, partial curve, poor fit]		
COc1cccc(CNC(=O)c2c(C)noc2-c2ccccc2Cl)c1	inconclusive: 22.4 µM [inhibitor, full curve, poor fit]		
COc1ccc(Cl)cc1C(=O)N1CCCN(c2cc(-c3ccc(C)c(C)c3)[nH]n2)CC1	inconclusive: 44.7 µM [inhibitor, partial curve, poor fit]		
CC(C)NC(=O)N1CC2ON=C(C(=O)NCc3cccnc3)C2C1 (stereo not given)			inactive: -25.8%
CCn1nccc1C(=O)N1CCCC(c2nnc(Cn3cccn3)n2C)C1 (stereo not given)		inactive	
C[S+](=O)([O-])CCn1ncc2cc(OCc3cccc(-c4ccccc4O)c3)ccc21	active: 35.5 µM		
Cc1noc(C)c1[S+](=O)([O-])N1CCC2(CC1)CC(=O)c1ccc(Cl)cc1O2	inconclusive: 50.1 µM [inhibitor, partial curve, poor fit]		
COC[C@@H]1OC[C@@]2(C)C3CC[C@@H](O)[C@@H](CC(=O)N4CCC(C)CC4)[C@]3(C)CC[C@H]2O1 (stereo not given in full)			inactive: -1.93% [at 172 µM]
O=C1NCCCCCCN(S(=O)(=O)c2cccc3cccnc23)[C@H]2CCC[C@@H]12	inconclusive: 28.2 µM [inhibitor, full curve]		
CC(C)c1nc2c(c(-c3ccc(O)cc3)n1)CN(Cc1ccsc1)CC2	inconclusive: 89.1 µM [inhibitor, single point]		
O=C(NC1CCN(c2cc(-c3cccs3)[nH]n2)CC1)c1ccc(Cl)cc1	inconclusive: 50.1 µM [inhibitor, partial curve, poor fit]		
Cc1ccc(CSc2nc(N)cc(N3CCN(CCCO)CC3)n2)cc1	inconclusive: 89.1 µM [inhibitor, single point]		
CCCOc1ccc(-c2nc3ccc(-c4ccc(OC)c(OC)c4OC)cc3o2)cc1	inconclusive: 22.4 µM [inhibitor, partial curve, poor fit]		

Structure (SMILES)	Potency	outcome	activity change, negative = cytotoxicity
COc1ccccc1Oc1ncccc1CNC(=O)c1cccnc1C		inactive	
O=C(NCC1CCOCC1)Nc1ccc(Cl)cc1C(F)(F)F			inactive: 2.81%
CCS(=O)(=O)N1CCC2(CC1)CN(c1cccc(F)c1)C2c1ccccc1 (stereo not given)	inconclusive: 17.8 µM [inhibitor, full curve]		
O=C(c1ccc2c(c1)OCO2)N1CCC2(CC1)C(=O)Nc1ccccc12			inactive: -25.4%
Cc1ccc(C(=O)N2CCC(n3cc(-c4nc(C(C)C)no4)nn3)CC2)cc1F	inconclusive: 1.78 µM [inhibitor, full curve, poor fit]		
CCc1noc([C@@H]2CC(F)(F)CN2C(=O)c2ccc(F)cn2)n1			inactive: -1.92%
COc1cccc(S(=O)(=O)N2CCC(N(C(C)=O)C3CCOCC3)CC2)c1			inactive: -13.9%
N#CC1CCN(C(=O)C2CCN(Cc3ccccc3-c3ccccc3F)CC2)CC1	inconclusive: 79.4 µM [inhibitor, partial curve, poor fit]		
COCC(=O)N1CCC2(CC1)CC(N1CCN(c3ccccn3)CC1)CCO2 (stereo not given)			inactive: -25.5%
COc1cc(OC)cc(C(=O)N2CCCC(n3cc(-c4nc(C(C)C)no4)nn3)C2)c1 (stereo not given)			inactive: -23.9%
Clc1ccc(CNc2ncncc2-c2nc(-c3ccccc3)no2)cc1	inconclusive: 100 µM [inhibitor, single point]		
O=C(Nc1cccc(C(F)(F)F)c1)O[C@@H]1CO[C@H]2[C@@H]1OC[C@@H]2NC(=O)c1ccccc1	inconclusive: 56.2 µM [inhibitor, partial curve, poor fit]		
CCCc1nc(C(=O)N(C)CCCc2cnn(C)c2)cs1			inactive: -8.33%
CCN(CC)Cc1ccc2c(c1)CN(C(=O)Nc1cccc(F)c1)CCO2	inconclusive: 100 µM [inhibitor, single point]		
COc1ccccc1CN1CC(O)CN(C(=O)c2ccc(SC)cc2)CC1=O (stereo not given)	inconclusive: 89.1 µM [inhibitor, partial curve, poor fit]		
Cc1oc2ccn(Cc3ccc(F)cc3)c(=O)c2c1C(=O)NCc1cc(F)ccc1F	inconclusive: 22.4 µM [inhibitor, full curve]		
O=[S+]([O-])(NCC1CN(Cc2ccc3[nH]ccc3c2)CC12CN(c1ccccc1)C2)c1ccccc1 (stereo not given)	active: 22.4 µM		
O=C1CCN(S(=O)(=O)c2ccccc2)CCCN(Cc2ccc3cc[nH]c3c2)CCN1	inconclusive: 79.4 µM [inhibitor, partial curve]		
COc1cccc(CNC(=O)c2ccc3c(c2)N(C(=O)c2ccc(F)cc2)CC3)c1	inconclusive: 50.1 µM [inhibitor, partial curve, poor fit]		
O=C(Nc1cccc(-c2nnc3n2CCCC3)c1)c1cccc(F)c1			inactive: 4.39%
COc1cccc(-c2cccc(C(=O)N3CCCC3C(=O)NCc3cccc(F)c3)c2)c1 (stereo not given)	inconclusive: 50.1 µM [inhibitor, partial curve, poor fit]		
Cc1nc(C)c(C(=O)N2CC[C@H](N3CCN(C)CC3)[C@H](CCC(=O)O)C2)o1			inactive: -44.5%

Structure (SMILES)	Potency	outcome	activity change, negative = cytotoxicity
COCC(=O)NC1CCN(c2ccc3nnc(C4CC4)n3n2)CC1			inactive: 2.83% [at 172 µM]
COc1ccc(Nc2ccnc(N3CCC(NC(=O)c4cccc(Cl)c4)CC3)n2)cc1	active: 14.1 µM		
CCn1ncc(NC(=O)Cn2ncc3cc(-c4cccc(C#N)c4)ccc32)n1	active: 25.1 µM		
CCN(CC)C(=O)CCC1CCN(C(=O)c2ccccc2Cl)CC1			inactive: -10.8%
COc1ccccc1-c1cc(C(=O)NCc2cccnc2)nn2cccc12	inconclusive: 50.1 µM [inhibitor, partial curve, poor fit]		
COCCn1ccc2c(C3=CCOCC3)nc(-c3cccc(N[S+](C)(=O)[O-])c3)cc21	inconclusive: 79.4 µM [inhibitor, partial curve, poor fit]		
O=C(c1cccnc1)N1CCC(c2nnc3n2C(C(=O)N2CCN(c4ncccn4)CC2)CC3)CC1 (stereo not given)		inactive	
COCCNC(=O)c1nc2nc(-c3ccccc3)c(Cl)cc2n1C	inconclusive: 126 µM [inhibitor, single point]		
COc1ccccc1C(=O)NC[C@@H]1C=C(C)[C@H](CC(=O)NCc2ccccn2)C[C@H]1C(C)C	inconclusive: 50.1 µM [inhibitor, partial curve, poor fit]		
O=C(Nc1ccccc1)N1Cc2[nH]cnc2C[C@H]1c1nc(-c2ccc(Cl)cc2)no1	active: 100 µM		
CCc1cccc(NC(=O)Cn2c(-c3ccccc3)nc(C)c(CCO)c2=O)c1	inconclusive: 44.7 µM [inhibitor, partial curve, poor fit]		
O=C(NCCCN1CCOCC1)C1CN(S(=O)(=O)c2ccccc2)CC12CCCCC2 (stereo not given)			inactive: -5.16%
COC(=O)c1cccc(NC(=S)N[C@H]2CO[C@H]3[C@@H]2OC[C@@H]3n2nnnc2Oc2cccc(N3CCOCC3)c2)c1	inconclusive: 50.1 µM [inhibitor, partial curve, poor fit]		
COc1ccccc1CCC(=O)N1CCCC2(C1)Nc1cccnc1NC2=NC1CCCC1 (stereo not given)	inconclusive: 3.55 µM [inhibitor, full curve, poor fit]		
O=C(Nc1cc(F)ccc1F)N1CCOc2ccc(CN3CCc4ccccc4C3)cc2C1	inconclusive: 31.6 µM [inhibitor, partial curve, poor fit]		
O=C(Nc1ccc([C@@H](O)[C@H]2COCC(=O)N2Cc2ccccc2F)cc1)c1ccc(F)cc1	inconclusive: 79.4 µM [inhibitor, partial curve]		
CCOc1ccc(NC(=O)C2CN(S(=O)(=O)c3cccnc3)CC23CCCCC3)cc1 (stereo not given)	inconclusive: 89.1 µM [inhibitor, single point]		
Cc1cccc(-c2noc([C@@H]3Cc4nc[nH]c4CN3C(=O)NC3CCCCC3)n2)c1	inconclusive: 89.1 µM [inhibitor, partial curve]		
Cc1nc([C@H]2CCN(Cc3ccc(F)cc3F)C[C@H]2NC(=O)CN(C)C)n[nH]1			inactive: -0.34%
COc1cccc(-c2nc3cc4c(cc3cc2CN2CCOCC2)OCO4)c1OC	inconclusive: 79.4 µM [inhibitor, partial curve]		
C#CCOc1ccccc1-c1c(-c2ccccc2)ncn1CCCO	inconclusive: 89.1 µM [inhibitor, single point]		
